# Test results as given in PubChem BioAssay AID686978 (National Center for Advancing Translational Sciences (NCATS), 2013).
# Where “and” joins values, the source holds several entries; their conditions need not be identical. Equal values may be shown once. Out of some 420,000 compounds screened, about 64,000 (15%) were called active. The inconclusive results got no clear call from the source; some entries with a clear call stand among them for comparison. Calls follow the shape of the dose curve; as a rule, active = well fitted inhibition curve with a large enough effect; inconclusive = small, poorly fitted or top-dose-only effect; inactive = flat fitted curve, though single readings scatter. A potency beside an inconclusive call is a rough fit, not a confirmed value.
# Assay: qHTS for Inhibitors of human tyrosyl-DNA phosphodiesterase 1 (TDP1): qHTS in cells in absence of CPT; also: nearly all actives have a fitted effect of over 55% in size
# Settings: DT40 Tdp1-/- hTDP1 cells, no CPT, ATP luminescence, 48 h; activity change, negative = growth inhibition: at 46.2 µM (top of the series) unless noted
# How it was run: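 Luminescent ATP content (CellTiter-Glo) served as the growth readout. Knockout chicken DT40 cells expressing human TDP1 were exposed to compounds without camptothecin for a minimum 48 hr at 37 °C.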
# % is scaled to controls: 0 for no effect and ±100 for the full control effect; potency is read from the fitted curve at half-maximal effect; tags tell the direction and shape of the fitted curve.
Structure (SMILES),Potency,"activity change, negative = growth inhibition"
O=C(c1ccc(NS(=O)(=O)c2ccccc2)cc1)N1CCN(Cc2ccc3c(c2)OCO3)CC1,"inconclusive: 25.9 µM [inhibitor, partial curve]",–
CC1(C)CCc2cc(S(=O)(=O)N3CCN(c4nc(-c5cccs5)nc5ccccc45)CC3)ccc2O1,"inconclusive: 35.5 µM [inhibitor, single point]",–
CCCC[C@@H]1C[C@H]1[C@@H](NC(=O)c1ccco1)c1ccc(C(=O)OC)cc1,"inconclusive: 18.4 µM [inhibitor, single point]",–
O=C(NC1CC2CCCC(C1)N2C(=S)NCCc1ccccc1)C1CC1 (stereo unspecified),"inconclusive: 25.9 µM [inhibitor, single point]",–
O=[N+]([O-])c1ccc(CNc2ccc(F)cc2)s1,"inconclusive: 16.4 µM [inhibitor, single point]",–
CCCN1CCN(CCCNC(=O)c2ccc(NC(=O)C3=C(C)OCCS3)cc2)CC1,–,inactive: 18.8%
O=C(CCNc1ccc(F)cc1)c1cccc([N+](=O)[O-])c1,active: 23.1 µM,–
O=C1O[C@@H](c2ccccc2)C[C@@H](O)C(=O)CCc2ccccc21,"inconclusive: 29.1 µM [inhibitor, single point]",–
CC(C)Nc1nc(NCCN2CCCC2)c2sc(-c3ccccc3)cc2n1,active: 13 µM,–
O=C(c1ccco1)N1N=C(c2ccccc2)CC1c1ccc2nccnc2c1 (stereo unspecified),"inconclusive: 16.4 µM [inhibitor, single point]",–
CCN(CC)S(=O)(=O)c1ccc2c(c1)N(CC(=O)N1CCN(c3cccc(C)c3)C(C)C1)C(=O)CO2 (stereo unspecified),"inconclusive: 29.1 µM [inhibitor, single point]",–
COc1cc(C(=O)NC2(C(F)(F)F)C(=O)NC(C)=C2C#N)cc(OC)c1OC (stereo unspecified),–,inactive: -1.71%
COc1ccc(O)c(CNc2ccccc2F)c1,"inconclusive: 29.1 µM [inhibitor, single point]",–
c1ccc2[nH]c(SCc3cscn3)nc2c1,"inconclusive: 29.1 µM [inhibitor, single point]",–
COc1cc(C(=O)Nc2ccc3nc4n(c(=O)c3c2)CCCCC4)cc(OC)c1OC,active: 23.1 µM,–
COc1ccc(S(=O)(=O)N2CCCC2C(=O)Nc2ccc(C(C)=O)cc2)cc1 (stereo unspecified),"inconclusive: 29.1 µM [inhibitor, single point]",–
N#CCCn1c(=O)cnc2cnc(N3CCNCC3)nc21,–,inactive: -5.58%
CCOC(=O)c1ccoc1CSCc1ccc(C(=O)OC)o1,"inconclusive: 23.1 µM [inhibitor, single point]",–
Nc1nc2cc(S(=O)(=O)NC3=NCCCCC3)ccc2s1,active: 13 µM,–
CC(=O)c1ccc(N2CCN(C(=O)Nc3ccc(C)cc3)CC2)cc1,"inactive and inconclusive: 3.66 µM [inhibitor, full curve]",–
Cc1cnnc2c1-c1nonc1CC2,–,inactive: -3.6%
N#Cc1c(SCC(N)=O)nsc1SCc1ccccc1Cl,"inconclusive: 25.9 µM [inhibitor, single point]",–
CCCC(C)NC(=O)c1ccc(C2SCC(=O)N2Cc2ccco2)cc1 (stereo unspecified),"inconclusive: 29.1 µM [inhibitor, single point]",–

Structure (SMILES),Potency,"activity change, negative = growth inhibition"
C=CCn1c(C)cc(C(=O)COc2ccc(N(C)S(=O)(=O)c3ccc(NC(C)=O)cc3)cc2)c1C,active: 5.8 µM,–
Cc1cc(NC(=O)Nc2ccc3c(ccn3C)c2)sn1,"inconclusive: 29.9 µM [inhibitor, partial curve, poor fit] and inconclusive: 29.1 µM [inhibitor, single point]",–
CCC(=O)N1CCCC(C(=O)c2ccc(-c3ccccc3)cc2)C1 (stereo unspecified),"inconclusive: 25.9 µM [inhibitor, single point]",–
COc1cc(/C=N/NC(N)=O)cc(Br)c1OCc1ccccc1C,–,inactive: -9.57%
CCOC(=O)C(C(=O)NCc1cccc(OC)c1)c1ncc(C(F)(F)F)cc1Cl (stereo unspecified),"inconclusive: 29.1 µM [inhibitor, single point]",–
COc1ccc(NC(=O)CSc2nnc(N)s2)cc1,inactive,–
COc1ccc(/C=N/NC(=O)COc2cc(C)cc(C)c2)cc1COC(C)=O,"inconclusive: 29.1 µM [inhibitor, single point]",–
O=C(Nc1cccc(-n2cnnn2)c1)C1CCCN(Cc2cccc(C(F)(F)F)c2)C1 (stereo unspecified),active: 18.4 µM,–
CC(C)N(Cc1cn(C)nc1-c1cccc(Cl)c1)Cc1nccn1C,"inconclusive: 18.4 µM [inhibitor, single point]",–
Cc1ccc2c(c1)c(N=O)c(O)n2Cc1ccc(Cl)cc1,–,inactive: -16.2%
Cc1ccc(C2CN(CCC(N)=O)C(=O)CO2)cc1 (stereo unspecified),–,inactive: 0.166%
NS(=O)(=O)c1ccc(CCn2c(=S)[nH]c3ccccc3c2=O)cc1,"inconclusive: 29.1 µM [inhibitor, single point]",–
CC1CCCCC1NC(=O)CNC(=O)c1ccco1 (stereo unspecified),–,inactive: 7.48%
COc1ccc(NC(=O)c2cccc3c2C(=O)N(C2CCCCC2)C3)cc1,active: 18.4 µM,–
CCOc1ccc(CCNS(=O)(=O)c2ccc3c(c2)NC(=O)CO3)cc1OCC,–,inactive: 6.67%
O=C(Nc1ccc(F)cc1F)c1ccc(-n2cccn2)nc1,"inconclusive: 16.4 µM [inhibitor, single point]",–
COc1cccc(-c2nc(N3CCN(C)CC3)c3ccccc3n2)c1,"inconclusive: 25.9 µM [inhibitor, single point]",–
C=CCN(c1ccccc1)S(=O)(=O)c1cccc(C(=O)Nc2ccc(N3CCOCC3)cc2)c1,active: 2.59 µM,–
Cn1ccc2c(-c3ccccc3F)cc3c(c21)C1CCC3C1 (stereo unspecified),–,inactive: -12.1%
CCc1ccc(NC(=O)CCc2c(C)nn(-c3ccc(N4CCCC4)nn3)c2C)cc1,"inconclusive: 29.1 µM [inhibitor, single point]",–
O=S1(=O)CCOCCCN1Cc1ccc(Cl)cc1,"inactive and inconclusive: 12.6 µM [inhibitor, partial curve]",–
Cc1cccc(OCC(=O)NCC(=O)N/N=C/c2ccc([N+](=O)[O-])cc2)c1,"inconclusive: 25.9 µM [inhibitor, single point]",–
Cc1cc(C)c2c(c1)NC(c1cc3c(cc1Br)OCO3)C1CC=CC21 (stereo unspecified),–,inconclusive: -38.4% [inhibitor]
